Assay results reported in the RNAGym collection of RNA variant scans (doi:10.7554/elife.90254).
The source gives no read counts; variants with many changes may rest on few reads.

B1: LINE1-mini (parent)
chain: GGCAGAGCUCAACACAGCGUGGCAAAGUGGCUGUGGCUAGACUGCC

Variants of: B1
Assay: self-cleavage, relative activity (ratio to wild type); higher = more cleavage; in vitro, sequencing; the parent is a self-cleaving ribozyme

| Variant | self-cleavage |
| --- | --- |
| GGCAGAUCUCAACAAAGCGGCGCAAAGUGGCUGUGGCUAGACUGAC [G7U C15A U20G G21C C45A] | 0.02 |
| GGCAGAGCUCAACACAGCGUGGUGACGUGGCUGGGGCUAGACUGCC [C23U A24G A26C U34G] | 0.9 |
| UGCAGAGCUCAACUCGGCGUGGCAAAGUGGCUGUGGCUAGACUGCC [G1U A14U A16G] | 0.07 |
| GGCAGAUCUCAACACAGCGUGGCAAAGUGGCUGUGCCUACACUGCC [G7U G36C G40C] | 0.07 |
| GGCAAAGCUCAACACAGCGAGACAAAGUAGCAGUGACUAGACUGCC [G5A U20A G22A G29A U32A G36A] | 0.16 |
| GACAGAGCUGAACACUGCGUGGCAAAGUGGCUGUGUCUAGACUGCC [G2A C10G A16U G36U] | 0.04 |
| GGCAGAGAUCAACACAGCGUGGCAAAGUGGCUGCGGCUAGAGUGCU [C8A U34C C42G C46U] | 0.07 |
| GGCCGAGCCCAACACAGCGUGGCAAAGUGGCUGUGGCAAGACUGCC [A4C U9C U38A] | 0.02 |
| GGCAGAGCUAAACACAGCCUGGCAAAGUGGCUGAGGCUAGACUGCC [C10A G19C U34A] | 0.01 |
| GGCCGAGCUUAGCACAGCGUGGCAAAGUGGCCGUGGCUAGACUGCC [A4C C10U A12G U32C] | 0.04 |
| GGCAGACCUCAACACCGCGUGGCAACGUGGCUCUGGCUUGACUGCC [G7C A16C A26C G33C A39U] | 1.21 |
| GGCAGCGCUCAUCACAGCGUGGCAGAGUGACUGUGGCUAGACUGCC [A6C A12U A25G G30A] | 0.09 |
| GGCAGAGCUCAACACAGCGUGGCCAAGUGGCUGUGGCGAGACUGUC [A24C U38G C45U] | 0.01 |
| GGCGGAGCUCAACACAGUGUGGCAAAGUGGCAGUGGCUCGACUGCC [A4G C18U U32A A39C] | 0.05 |
| GGCAGAGCUCAACACAGUGUAGCGAAGUGGCUGUGGCUAGACUGCC [C18U G21A A24G] | 0.1 |
| GGCAGAGCUCAAAACAGCGUGGCGAAGUGGCUGUGGCUAGAGUGCC [C13A A24G C42G] | 0.07 |
| GGCAGAGCUCAACACAGCGUGGCAAACGGAUUGUGGCUAUACUGCC [G27C U28G G30A C31U G40U] | 0.06 |
| GGCAGAGCUCACCACAGCGUGUAAAUGUGGCUGUGGCUAGCCUGCU [A12C G22U C23A A26U A41C C46U] | 0.03 |
| GGCAGAGCUCAACACCGCGUGUCAAAGUGACUGUGGCUAAACUGUC [A16C G22U G30A G40A C45U] | 0.02 |

| Variant | self-cleavage |
| --- | --- |
| GGCAGGCCGCAACACAGCGUGGCAAAGUGGUUGUGGCUAGACUGCC [A6G G7C U9G C31U] | 0.09 |
| GGCAGAGCUCAACACAGCGUGGCAAAGUGGCUGUUGCUAGACUCUC [G35U G44C C45U] | 0.05 |
| GGCAGAGCUAAACACAGCGUGGCAAAGUGGGCGUGGCUAGACUACC [C10A C31G U32C G44A] | 0.02 |
| GGCAGAGCUCAACACAGCGUGGCACAGUGGCUCUGUCUAAACUGCC [A25C G33C G36U G40A] | 0.04 |
| GGCAGAGCUCAACACCGCGUGGCAGUGUGGCUGUGGCUAGACUGCC [A16C A25G A26U] | 0.02 |
| GGCAGAGCUCAAGAGAGCGUGGCAGACGGGCUGUGGCUAGACUGCC [C13G C15G A25G G27C U28G] | 0.01 |
| GGCAGAGCUCAACACAACGUCGCAAAGUGGCUGUGGCUAGACUGCA [G17A G21C C46A] | 1.02 |
| GGCAGAGCUCAGCACAUCGUGGCAAAGUGCCUGUGGCUAGACUGCG [A12G G17U G30C C46G] | 0 |
| CUCAGAGCUCAACACAGCGUAGCAAAGUCGCUGUGGCUAGACUGCC [G1C G2U G21A G29C] | 0.07 |
| GGCAGAACGCAACACAGCGUUGAAAAGUGGCUGUGGCUAGACUGCC [G7A U9G G21U C23A] | 0.01 |
| GGCAGGGCUCAAUCCAGCGUGGCAAAGUUGCUGUGGCUUGACUGCC [A6G C13U A14C G29U A39U] | 0.08 |
| AGCAGAUCUAAACACAGCGUGGCAAAGUGGCUGUGGCGAGACUGCC [G1A G7U C10A U38G] | 0.04 |
| GGCAGAGCUCACCACAGAGUGGCAAAGUGGCUGUGGCUAGAUUGCC [A12C C18A C42U] | 0.03 |
| AACAGACCUCAACACAGCGUGGCAAAGUGGUUGUGGCUAGACUGCC [G1A G2A G7C C31U] | 0.14 |
| GGCAGAGCUCAACAUAGCGUGGCAAAGUGGCUGUGGAUAGACUGCA [C15U C37A C46A] | 0.06 |
| GGCAGACCUCAACAUAGCGUGGCAAAGUGGCUGUGGCUACACUACC [G7C C15U G40C G44A] | 0.02 |
| GCCAGAGCACAACACAGCGUGGCAAAGUUCCUGUGACUAGACUGCC [G2C U9A G29U G30C G36A] | 0.11 |
| GGCAGAGCUCAACUCAGCGUGGCUAAGUGCCUGUGGCUAGACUGCC [A14U A24U G30C] | 0.1 |
| GGCAGAGCUCAACACAGCUUGUCAAAGUGGCUGUGGCUAAACUGCC [G19U G22U G40A] | 0.11 |

| Variant | self-cleavage |
| --- | --- |
| AGCAGAGCUCAACACAGCGUAGCAAAGUGGAUGUGGCUAGAGUGCC [G1A G21A C31A C42G] | 0.02 |
| GGCAGAGCUAAACACAGCGUGGCAAACUGGGUGUGACUAGACUGCU [C10A G27C C31G G36A C46U] | 0.01 |
| GGCAGAGUUCUACACAGCGUGGCAAAGUGGCUGUGGCUACACUGGC [C8U A11U G40C C45G] | 0.04 |
| GGCCGAGCUCAACACAGCGUGGCAAAGUGGCUGUGGCUUGACUGUC [A4C A39U C45U] | 0.06 |
| GGCAGAGCUCAACACAGUGUCGCAAAGUGGCCGUGGCUAGACUGCC [C18U G21C U32C] | 0.32 |
| GGCAGAGCUCAACACAGCGUGGGAAAGCGGCUGUGGCUAGUCUGCC [C23G U28C A41U] | 0.1 |
| GGCAGAGCUCAACACAGCGUGGCGAAGUGGCCGUGGCUAGACUACC [A24G U32C G44A] | 0.43 |
| GGCGGAGCUCAACACUGCGUGGCAAAGUGACUGUGGCUAGACUGCC [A4G A16U G30A] | 0.08 |
| GGCAGAGCUUAACACAGCGUGGCAAAAUGGCUGUGUCUAGACUGCC [C10U G27A G36U] | 0.04 |
| GGCAGAGCUCAACACAGCCUGGCAAAGUCUCUGUGGCUAGACUUCC [G19C G29C G30U G44U] | 0.24 |
| GGCAGAGCUCAACACAGCGUGGCAAAUUGGGUGUGGCUAGAGUGCC [G27U C31G C42G] | 0.01 |
| GGAAGAGCUAUACUCAGCGUGGCAAACUGGCUGUGGCUAGACUGCC [C3A C10A A11U A14U G27C] | 0.01 |
| GGUAGAGCUCAACACAGCGUUGCGAAGCGGCUGUGGCUAGACUGCC [C3U G21U A24G U28C] | 0.1 |
| GGCAGAGCUCAAUACAGCGUGGCAAAGUGGAUGUGGCUAGACUGCA [C13U C31A C46A] | 0.01 |
| GGCAGAGCUCAAAACAGCGUGGCCAUGUGGCUGUGACUAGACUGCC [C13A A24C A26U G36A] | 0.09 |
| GGCAGAGCUCAACGCAGAGUGGCAAAGUAGCUGUGGCUAGAGUGCC [A14G C18A G29A C42G] | 0.04 |
| GGCAGAGCUCAACACAGCGUGGCAAAGUGGCAGUGCCUCGACUGCC [U32A G36C A39C] | 0.05 |
| GGCAGAGUUCAACACAGCGUGUCAAAGUGGCUGUGGCUAGCCUGCC [C8U G22U A41C] | 0.26 |
